Laboratory results as given in PubChem BioAssay AID463173 (ICCB-Longwood Screening Facility, Harvard Medical School, 2010).
Out of some 52,000 compounds screened, about 1,700 (3.3%) were called active. No stated cut-off is given here; in the data, active means survival mostly below about 52% (no sharp cut-off); inactive means mostly above about 56%. The list shows a part of the results.

These molecules were tested on Wild type (assay: growth inhibition of S. aureus wild type versus tarO mutant, primary screen, teichoic acid synthesis inhibitors, RN4220, OD600 (AID 463173)). Details: S. aureus RN4220 wild type/DeltatarO growth, OD600, 18 h, stronger effect = lower value, screened at 18.75 µg/mL (by protocol).
In the case of `COc1ccccc1CNc1ccc(-c2nc(-c3ccco3)no2)cc1[N+](=O)[O-]`, the survival is reported as inactive: 67%. In the case of `COc1ccc(Cn2c(=O)c3oc4ccccc4c3n(Cc3cccc(C)c3)c2=O)cc1`, the survival is reported as inactive: 81%. In the case of `CCOc1ccccc1NC(=O)Cn1cc(C(=O)c2ccc(Cl)cc2)c(=O)c2ccc(C)nc21`, the survival is reported as inactive: 85%. `Cc1cc2nn(-c3ccc(F)cc3)nc2cc1NC(=O)c1cccc2ccccc12` was tested, and the survival was inactive: 76%. In the case of `O=C(Nc1nnc(S(=O)(=O)N2CCOCC2)s1)c1ccccc1Cl`, the survival is reported as inactive: 74%. `CC(C)CCNC(=O)c1ccc2c(c1)N(Cc1cccc(Cl)c1)C(=O)c1ccccc1S2` was tested, and the survival was inactive: 70%. With `CCCC(=O)n1nc(-c2ccco2)nc1NCc1ccccc1Cl` the survival was inactive: 89%. With `Cc1cc(C)n2ncc(C(=O)Nc3ccc(C)c(C)c3)c2n1` the survival was inactive: 117%. With `CC(=O)Nc1ccc(NC(=O)C2CCCN2S(=O)(=O)c2ccc3c(c2)CCCC(=O)N3)cc1` (stereo not drawn) the survival was inactive: 65%. For `COc1ccc(OC)c(CCNC(=O)c2cc3c(=O)oc4ccc(C)cc4c3s2)c1`, the survival was inactive: 84%. With `Cc1ccc(OCC(=O)Nc2ccc3c(c2)nc(CCNC(=O)c2ccco2)n3C)cc1` the survival was inactive: 137%. `COc1ccc(N2CCN(C(=O)CN3C(=O)CSc4c3c(C)nn4-c3ccccc3)CC2)cc1` was tested, and the survival was inactive: 85%. With `O=C(Nc1ccc2oc(-c3cccnc3)nc2c1)c1ccc(-c2ccc(OC(F)(F)F)cc2)o1` the survival was inactive: 112%. In the case of `CN(C)N=Nc1ccc(S(N)(=O)=O)cc1`, the survival is reported as inactive: 92%. With `O=C(Nc1ccc2nc(SCc3ccccc3)sc2c1)c1ccccc1F` the survival was inactive: 88%. `CC1(C)CC(NC(=O)CCCC(=O)O)CC(C)(C)N1` was tested, and the survival was inactive: 107%. `O=C(Nc1ccc(F)c(Cl)c1)c1cc(S(=O)(=O)N2CCc3ccccc3C2)ccc1F` was tested, and the survival was inactive: 80%. In the case of `COCCCNc1nc2cc(OC)c(OC)cc2c2nc(-c3ccccc3)nn12`, the survival is reported as inactive: 65%. With `Cc1ccccc1N1CC(C(=O)Nc2ccc(Br)cc2)CC1=O` (stereo not drawn) the survival was inactive: 134%. In the case of `COc1ccc(CNC(=O)CN2N=C(c3ccccc3)CCC2=O)c(OC)c1`, the survival is reported as inactive: 78%. In the case of `CCn1c(=O)c(=O)n(CC)c2cc(N3CCCCC3)c(NC(=O)c3ccc(Cl)cc3)cc21`, the survival is reported as inactive: 127%. `COc1ccc(-c2nnn(CC(=O)N(CC(=O)NCc3ccccc3)c3ccc4c(c3)OCCO4)n2)cc1OC` was tested, and the survival was inactive: 102%. In the case of `Cc1nnc(N2CCCC(C(=O)NCc3ccccc3F)C2)c2nn(-c3ccc(Cl)cc3)c(C)c12` (stereo not drawn), the survival is reported as inactive: 68%. With `COc1cc(Cl)c(C)cc1NC(=O)c1ccc2c(SCC(=O)O)c3c(nc2c1)CCCC3` the survival was inactive: 52%. For `O=C(CSc1n[nH]c(-c2ccccc2)n1)NCCCc1ccccc1`, the survival was inactive: 69%. `Cc1ccc(-n2nnc(-c3nsc(NC(=O)c4cccc(Cl)c4)n3)c2C)cc1C` was tested, and the survival was inactive: 67%. With `COc1ccc(C(=O)NCc2nnc(SCC(=O)Nc3ccccc3)n2-c2ccccc2)cc1` the survival was inactive: 77%. `O=C(Cn1c(=O)c2ccccc2n(CC(=O)Nc2ccc(F)cc2F)c1=O)NCCc1ccccc1` was tested, and the survival was inactive: 81%. For `CCN(CC)CCNC(=O)c1ccc2c(c1)NC(=O)C(CS(=O)(=O)Cc1cccc(Br)c1)N2` (stereo not drawn), the survival was inactive: 134%. For `COc1ccc(-c2nc3cc(C(C)C)ccc3o2)cc1NC(=O)COc1ccc(C)cc1C`, the survival was inactive: 59%. In the case of `Cc1nc(SCC(=O)Nc2c(C)nn(C)c2C)c2cnn(-c3ccccc3)c2n1`, the survival is reported as inactive: 120%. For `COc1ccc(NC(=O)CSc2ncccc2C(=O)O)cc1OC`, the survival was inactive: 78%. `Cc1ccc(C)c(Nc2ncnc3onc(C)c23)c1` was tested, and the survival was inactive: 71%. `COc1ccc(NC(=O)CCSc2nc(-c3ccco3)cc(C(F)(F)F)n2)cc1` was tested, and the survival was inactive: 72%. For `CCN(C(=O)c1cc2c(=O)oc3ccc(C)cc3c2s1)c1cc(OC)ccc1OC`, the survival was inactive: 89%. In the case of `CCOc1ccc2[nH]c(=O)c(CN(CCOC)C(=O)NC3CCCCC3)cc2c1`, the survival is reported as inactive: 102%. `CCN(CC)c1ccc(CN(C(=O)Cc2coc3ccc(C)cc23)C2CCS(=O)(=O)C2)cc1` (stereo not drawn) was tested, and the survival was inactive: 90%. With `CCOc1cccc(CC(=O)N2CCc3c([nH]c4ccccc34)C2c2ccccc2)c1OCC` (stereo not drawn) the survival was inactive: 81%. For `CCC1CCCCN1CCCNC(=O)c1ccc2c(c1)N(Cc1ccccc1)C(=O)c1ccccc1S2(=O)=O` (stereo not drawn), the survival was inactive: 139%. In the case of `CCn1nc(C)c2c(-c3ccccc3)cc(=O)n(C(C)C(=O)NCc3cccc(OC)c3)c21` (stereo not drawn), the survival is reported as inactive: 72%. For `Cc1ccc(-c2nc3scc(CCNS(=O)(=O)c4ccc(F)c(C)c4)n3n2)cc1`, the survival was inactive: 83%. For `CCc1ccc(NC(=O)c2cnn3c(C(F)F)cc(C)nc23)cc1`, the survival was inactive: 105%. With `CCc1ccc(OCCCn2c(-c3ccc(Cl)cc3)nc3ccccc3c2=O)cc1` the survival was inactive: 52%. For `CCCN1C(=O)CSC1=Nc1ccccc1`, the survival was inactive: 101%. With `Cc1ccc(OCC(=O)OCc2cc(=O)n3nc(C4CCCCC4)sc3n2)cc1C` the survival was inactive: 79%. `O=C1CC(c2ccccc2)Sc2nc(-c3ccc(F)cc3)nn21` (stereo not drawn) was tested, and the survival was inactive: 67%. In the case of `O=C(c1[nH]c2ccccc2c1Sc1ccc(Cl)cc1)N1CCCCC1`, the survival is reported as inactive: 48%. In the case of `CCC1CN(C(=O)N2CCC(C(=O)NCCc3ccccc3C)CC2)c2ccccc2O1` (stereo not drawn), the survival is reported as inactive: 118%. For `Cc1ccc(Cl)cc1NC(=O)CSc1ccc(C(=O)O)cn1`, the survival was inactive: 88%. With `CCN(CC)c1ccc(NC(=O)c2cc(C)nc3c2c(C)nn3-c2cccc(F)c2)c(C)c1` the survival was inactive: 73%. `c1ccc(-c2nnc(CN3CCN(c4ccccn4)CC3)o2)cc1` was tested, and the survival was inactive: 79%. With `O=C(NCCSCc1cccc(Cl)c1)C1CCN(S(=O)(=O)Cc2ccccc2)CC1` the survival was inactive: 80%. In the case of `CCN(Cc1ccccc1)Cc1c(O)ccc2c(=O)c(-c3ccccc3)c(C(F)(F)F)oc12`, the survival is reported as inactive: 123%. `CCOc1ccccc1CNCc1c(C(=O)O)c(C)n(Cc2ccc(Cl)cc2)c1C` was tested, and the survival was inactive: 89%. In the case of `COc1ccc(C(=O)Nc2cc(C(C)C)c(O)c(S(=O)(=O)c3ccc(Cl)cc3)c2C)cc1`, the survival is reported as inactive: 72%. With `COc1ccc2c(c1)cc1c(=O)n(CC(=O)NCc3ccco3)nc(C)n12` the survival was inactive: 78%. In the case of `COc1ccccc1N(CC(=O)NCCSCc1ccccc1)S(C)(=O)=O`, the survival is reported as inactive: 75%. `CCCCc1nn2c(=O)cc(COC(=O)c3cccc(OC)c3)nc2s1` was tested, and the survival was inactive: 127%. `CCc1nnc2c(Nc3cccc(C(C)=O)c3)nc3ccccc3n12` was tested, and the survival was inactive: 76%. For `CC(C)c1ccccc1NC(=O)c1cccs1`, the survival was inactive: 112%. In the case of `COc1ccc(-c2cc(C(F)(F)F)nc(SCC(=O)NCc3ccc(OC)c(OC)c3)n2)cc1`, the survival is reported as inactive: 97%. `CCOC(=O)c1ccc(NC(=O)C2CC(=O)NC(Nc3nc4ccccc4s3)=N2)cc1` (stereo not drawn) was tested, and the survival was inactive: 113%. `COc1ccc(-c2onc(C)c2C)cc1S(=O)(=O)NCc1ccco1` was tested, and the survival was inactive: 63%. `CCc1ccc(CNC(=O)c2ccc3c(c2)nc2n3CCC(C)C2)cc1` (stereo not drawn) was tested, and the survival was inactive: 127%. `COc1cccc(C(=O)Nc2cccc(OCc3cc(=O)n4cc(C)ccc4n3)c2)c1` was tested, and the survival was inactive: 90%. For `CCOc1ccc(C(=O)NCc2ccc3c(c2)CCN3C(=O)c2ccccc2)cc1`, the survival was active: -4%. In the case of `COc1ccc(NC(=O)CN2C(=O)COc3ccc(S(=O)(=O)Nc4ccccc4)cc32)cc1`, the survival is reported as inactive: 72%. With `CCOC(=O)CN1C(=O)c2ccccc2Sc2ncccc21` the survival was inactive: 75%. `Cc1nc2ccc(NC(=O)NCCCO)cc2s1` was tested, and the survival was inactive: 111%. With `CCCCc1nn2c(=O)cc(COC(=O)COc3ccc(C)cc3)nc2s1` the survival was inactive: 75%. For `COc1ccc(C)cc1NC(=O)CN(c1ccccc1)S(=O)(=O)N(C)C`, the survival was inactive: 78%. With `CC1=C(C(=O)Nc2ccc(C)cc2C)C(c2ccc(O)cc2)n2nnnc2N1` (stereo not drawn) the survival was inactive: 85%. With `COc1ccc(/C=C\c2onc(C)c2S(=O)(=O)N2CCC(C(=O)Nc3ccc(C)cc3C)CC2)cc1` the survival was inactive: 76%. For `CCc1ccc(NC(=O)CSC2=Nc3ccccc3C3=NC(CCC(=O)NCCc4ccccc4)C(=O)N23)cc1` (stereo not drawn), the survival was inactive: 88%. For `CCC12CN3CC(C)(CN(C1)C3c1c[nH]c3ccccc13)C2=O` (stereo not drawn), the survival was inactive: 84%. `CCC(=O)N1CCc2cc(S(=O)(=O)NC(CC(C)C)C(=O)Nc3cc(C)ccc3OC)ccc21` (stereo not drawn) was tested, and the survival was inactive: 78%. For `O=C(Nc1ccc(F)cc1Cl)n1ncc2cc(Cl)ccc21`, the survival was inactive: 26%. With `CCCOc1ccc(C(=O)Nc2cccc(NC(=O)c3cccc(Cl)c3)c2)cc1` the survival was inactive: 73%. `O=C1C2C3c4ccccc4C(c4ccccc43)C2C(=O)N1C(CO)(CO)CO` (stereo not drawn) was tested, and the survival was inactive: 103%. In the case of `CCCCNC(=O)C1CCN(c2nc(OC)nc(OC)n2)CC1`, the survival is reported as inactive: 100%. For `CCS(=O)(=O)c1ncc(N(Cc2ccco2)Cc2sccc2C)c(C(=O)Nc2ccc(C)cc2C)n1`, the survival was inactive: 89%. For `CCCNC(=O)CCNS(=O)(=O)c1ccc2c(c1)c(=O)n(C)c(=O)n2C`, the survival was inactive: 89%. With `CC1(C)CC(NCC(=O)NC2CC(C)(C)NC(C)(C)C2)CC(C)(C)N1` the survival was inactive: 113%. In the case of `CCC(=O)N1CCc2cc(S(=O)(=O)NCCC(=O)Nc3ccc(C)cc3)ccc21`, the survival is reported as inactive: 75%. `CC(=O)c1cccc(Nc2ccc3cc(S(=O)(=O)N4CCC(C)CC4)ccc3n2)c1` was tested, and the survival was inactive: 69%. In the case of `O=C(COc1ccccc1-c1nnc(-c2ccccc2)o1)Nc1ccc(Br)cc1F`, the survival is reported as inactive: 91%. For `Cc1ccc(CNC(=O)CCc2c(C)nc3nc(CNC(=O)OC(C)(C)C)nn3c2C)cc1`, the survival was inactive: 84%. For `CC(C)c1ccc(-c2nnc3n(CCc4ccccc4)c(=O)c4ccccc4n23)cc1`, the survival was inactive: 47%.
